Marks after values point to notes of the source that are not given here.
Legend:
[1] = test system: A375 xenograft (melanoma); assay: Xenograft anti-tumor efficacy; assay type: in vivo, mice; conditions: based on measurement of tumor area (*)
Method: Tumor cell lines were cultivated as described in the parts above and 100 μl containing cell line specific numbers of tumor cells inoculated subcutaneously (s.c.) into female athymic nude mice (NMRI nu/nu, 6-8 weeks, 20-25 g, Taconic). Mice were housed under standardized pathogen free conditions and treated according to the animal welfare guidelines.
After tumor growth to a size of approximately 40 mm^2 mice were randomized into control and treatment groups with a respective group size of n=8-10. Mice were treated with various doses of anti-TWEAKR antibodies diluted in PBS by intravenous injection (i.v.) into the tail vein with a twice per week schedule (q4dx3: applications twice per week, three applications in total; q4dx8: applications twice per week, eight applications in total). […]
Tumor growth was monitored 2-3 times per week by caliper measurement (length×width in mm) as well as body weight (in g). […]

SW480 cells = assay: Inhibition of proliferation (Cell Titer Glo); assay type: cell-based, human; conditions: 72h, 100 μg/ml antibody or *100 ng/ml TWEAK
Method: (§1) Therefore cells were plated in 96well plates in 750 assay medium (growth media from Table 21, plus 100 ng/ml IFN gamma for 786-O cells) at the following cell numbers: WiDr cells 3000 cells/well, 786-O cells 2500 cells/well. 24 h later cells were incubated with anti-TWEAKR antibodies (see Table 26), recombinant human TWEAK or isotype control IgG (not shown) at the indicated concentrations (antibodies from 0.03-300 μg/ml, TWEAK 100 or 300 ng/ml). At the time of antibody addition cell viability was determined in sister plates (time point zero): therefore 750/well CTG solution (Promega Cell Titer Glo solution (catalog # G755B and G756B) was added to the cells, incubated for 10 minutes and luminescence was read on a Victor V (Perkin Elmer). 96 h after incubation with the agents, cell viability was determined in the assay plates by addition of 100 μl/well CTG solution, 10 min incubation and reading of luminescence. Proliferation in control wells was calculated by subtracting time zero values from the luminescence values in the untreated control wells. % of cell proliferation was calculated in the compound treated wells as compared to the untreated control wells.
(§2) To evaluate, whether this strong anti-proliferative activity can also be observed in a broader cell panel, in addition LOVO, NCI-H1975, SW-480 (all 3000 cells/well), HT-29 (4000 cells/well), A253 and SK-OV3 (both 2500 cells/well) cells were incubated with 100 μg/ml anti-TWEAKR antibodies or TWEAK ligand for the time periods as indicated in Table 27. All cells were seeded in the growth media indicated in Table 21 and for all cells except for WiDr cells 100 ng/ml IFNgamma was added to the assay medium when seeding the cells. The percentage of growth inhibition for treated cells as compared to proliferation in untreated control cells was measured and calculated as described above. As shown in Table 27 the antibodies of the current invention are more efficacious as compared to other known antibodies in inhibiting proliferation of various cancer cell lines at 100 μg/ml. […]

Lovo cells = assay: Inhibition of proliferation (Cell Titer Glo); assay type: cell-based, human; conditions: 72h, 100 μg/ml antibody or *100 ng/ml TWEAK
Method: as §1, §2

NCI-H1975 cells = assay: Inhibition of proliferation (Cell Titer Glo); assay type: cell-based, human; conditions: 72h, 100 μg/ml antibody or *100 ng/ml TWEAK
Method: as §1, §2

[2] = target: T1, TWEAKR protein (TPP-2305) (Homo sapiens, UniProt Q9NP84); assay: Biacore monovalent KD with TWEAKR protein; conditions: first order 1:1 binding model
T1 construct: TPP-2305; hTNFRSF12Aaa28-80; Human; 30R-AT080; 168; purchased Fitzgerald Inc 30R-AT080
Method: Binding affinities of anti-TWEAKR antibodies were determined by surface plasmon resonance analysis on a Biacore T100 instrument (GE Healthcare Biacore, Inc.). Antibodies were immobilized onto a CM5 sensor chip through an indirect capturing reagent, anti-human IgG(Fc). Reagents from the “Human Antibody Capture Kit” (BR-1008-39, GE Healthcare Biacore, Inc.) were used as described by the manufacturer. Anti-TWEAKR antibodies were injected at a concentration of 10 μg/ml at 10 μl/min for 10 sec.
Sensorgrams were generated after in-line reference cell correction followed by buffer sample subtraction. The dissociation equilibrium constant (KD) was calculated based on the ratio of association (kon) and dissociation rated (koff) constants, obtained by fitting sensorgrams with a first order 1:1 binding model.

ka [2]: 4.2e+06 M⁻¹ s⁻¹ | kd [2]: 0.11 s⁻¹
B1: TPP-1538: anti-TWEAKR human IgG1; heavy chain SEQ ID NO: 62, light chain SEQ ID NO: 61 (antibody, listed as Homo Sapiens)
heavy: EVQLLESGGGLVQPGGSLRLSCAASGFTFSPYPMMWVRQAPGKGLEWVSYISPSGGKTHYADSVKGRFTISRDNSKNTLYLQMNSLRAEDTAVYYCARGGDTYFDYFDYWGQGTLVTVSS[human IgG1 constant region not shown]
light: AQDIQMTQSPATLSASVGDRVTITCRASQSISSYLNWYQQKPGKAPKLLIYAASSLQSGVPSRFSGSGSGTDFTLTISSLQPEDFATYYCQQSYSSPGITFGPGTKVEIKRTVAAPSVFIFPPSDEQLKSGTASVVCLLNNFYPREAKVQWKVDNALQSGNSQESVTEQDSKDSTYSLSSTLTLSKADYEKHKLYACEVTHQGLSSPVTKSFNRGEC
Final T/C [1]: 0.46* | % Inhibition of proliferation (SW480 cells): 49% | % Inhibition of proliferation (Lovo cells): 65% | % Inhibition of proliferation (NCI-H1975 cells): 64%

— patent US20160237160A1, “ANTI-TWEAKR ANTIBODIES AND USES THEREOF” (BAYER PHARMA AKTIENGESELLSCHAFT, priority 2013, published 2016)
